Measured values: publication PMC10663837 (iScience, 2023)

Biological target: Human Hsp90β, purified (human, UniProt P08238)
Experiment: pull-down

- binding result: binds
B1: PD-L1 endogenous in E0771 cells (natural protein)
chain: not shown
